Measurements taken from article PMC4336329 (PLoS ONE, 2015).
About 14,000 (4.5%) of roughly 310,000 compounds showed an effect of 50% or more. Effects have a minus sign here. The list shows a part of the results.

Each compound was assayed against human ether-à-go-go-related gene (hERG) potassium channel (human, UniProt Q12809) (assay: primary screen, population patch clamp on CHO cells stably expressing hERG).
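Note: peak tail current of the secondary pulse compared with the same well before compound.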

human ether-à-go-go-related gene (hERG) potassium channel, sequence (Q12809 whole entry, looked up): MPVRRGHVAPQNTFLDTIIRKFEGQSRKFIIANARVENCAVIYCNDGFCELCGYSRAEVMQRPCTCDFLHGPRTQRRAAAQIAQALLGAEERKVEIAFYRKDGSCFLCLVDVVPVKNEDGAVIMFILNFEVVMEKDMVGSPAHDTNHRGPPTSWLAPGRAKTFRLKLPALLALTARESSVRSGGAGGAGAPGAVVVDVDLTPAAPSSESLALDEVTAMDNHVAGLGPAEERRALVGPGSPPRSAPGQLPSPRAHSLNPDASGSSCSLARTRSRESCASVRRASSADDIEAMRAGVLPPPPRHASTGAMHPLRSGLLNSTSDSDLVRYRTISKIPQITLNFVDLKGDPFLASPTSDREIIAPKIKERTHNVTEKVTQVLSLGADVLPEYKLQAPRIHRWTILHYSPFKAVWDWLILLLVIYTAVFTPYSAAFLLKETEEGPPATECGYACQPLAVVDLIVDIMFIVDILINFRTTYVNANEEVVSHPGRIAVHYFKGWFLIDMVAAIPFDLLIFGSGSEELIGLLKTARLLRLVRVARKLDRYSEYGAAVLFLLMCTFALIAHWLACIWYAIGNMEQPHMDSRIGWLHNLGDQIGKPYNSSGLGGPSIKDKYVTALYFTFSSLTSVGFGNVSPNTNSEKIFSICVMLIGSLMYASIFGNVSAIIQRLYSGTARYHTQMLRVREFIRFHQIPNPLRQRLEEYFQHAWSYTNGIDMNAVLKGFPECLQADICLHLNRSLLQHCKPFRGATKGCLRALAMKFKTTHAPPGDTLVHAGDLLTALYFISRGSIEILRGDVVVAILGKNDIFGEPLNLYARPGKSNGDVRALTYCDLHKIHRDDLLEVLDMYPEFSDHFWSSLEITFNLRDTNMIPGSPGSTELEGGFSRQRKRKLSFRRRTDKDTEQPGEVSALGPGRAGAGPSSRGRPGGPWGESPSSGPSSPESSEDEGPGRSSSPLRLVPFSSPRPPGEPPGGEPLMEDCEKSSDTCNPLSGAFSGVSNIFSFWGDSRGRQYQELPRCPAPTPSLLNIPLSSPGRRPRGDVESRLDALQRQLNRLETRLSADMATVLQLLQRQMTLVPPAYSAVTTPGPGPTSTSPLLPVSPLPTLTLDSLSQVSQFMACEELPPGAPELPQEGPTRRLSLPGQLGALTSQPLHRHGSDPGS

Compound | hERG current change (%, negative = inhibition) at 10uM [%]
NC(=S)N/N=C/c1coc2ccccc2c1=O | 23.3
Cc1cc(N2CCN(S(=O)(=O)c3ccccc3)CC2)nc2c(C)cccc12 | 23.1
CCN(CC)S(=O)(=O)c1cccc(C(=O)Nc2nnc(C)s2)c1 | 3.2
O=C(COC(=O)c1ccc(NS(=O)(=O)c2cccs2)cc1O)Nc1nc2ccccc2s1 | 1.34
Cc1cc(C(=O)N/N=C2\CCCc3ccccc32)c(C)o1 | 3.1
COc1cnc(N(C)C)nc1Sc1ccc(Cl)cc1 | 11.2
CN(C)S(=O)(=O)c1ccc(C(=O)Nc2ccccc2[N+](=O)[O-])cc1 | -0.189
Cc1noc(C)c1COC(=O)c1cccc(N(C)C)c1 | 17
CN(CC(=O)Nc1cccc(F)c1)C(=O)CCCn1c(=O)oc2ccccc21 | -48.4
Cc1ccc(C)c(S(=O)(=O)Nc2cccc(-n3cnnn3)c2)c1 | -6.68
O=C(N/N=C/c1cc2ccccc2[nH]1)c1ccccc1Cl | -1.92
Cc1cc(C)nc(-n2nc(C)c(C3(O)C(=O)Nc4ccc(F)cc43)c2N)n1 (stereo not drawn) | 3.79
CC(C)C(NC(=O)c1ccccc1)C(=O)NC1=NCCS1 (stereo not drawn) | 10.9
COc1cccc(-c2[nH]nc3c2C(c2ccsc2)C(C#N)=C(N)O3)c1 (stereo not drawn) | -4.18
CCCn1nc2cc(C(=O)NCCCCc3ccccc3)ccc2c1OCC | -23.9
COC(=O)CCCNC(=O)OCc1ccc([N+](=O)[O-])cc1 | -10.9
COc1ccc(/C=C/C(=O)NC(=S)NNC(=O)c2cnccn2)cc1 | 14.5
O=C(CSc1n[nH]c(=O)n1C1CC1)c1ccc2c(c1)OCCO2 | 4.77
CC(C)OC(=O)CCC1(C(=O)O)CCC(=O)NC1 (stereo not drawn) | 7.55

Compound | hERG current change (%, negative = inhibition) at 10uM [%]
Cc1c(Br)cc(C(=O)N2CCN(CCO)CC2)c(C)c1C | 9.99
Cc1ccc(NC(=S)NC(NC(=O)c2ccccc2)C(Cl)(Cl)Cl)c(C)c1 (stereo not drawn) | 0.203
COc1ccc(CC(=O)OC2CCCN(C)C2)cc1.Cl (stereo not drawn) | 19.3
O=C(CNc1ccccc1-c1ccccc1)NCc1ccccc1 | -21.7
CSc1ccccc1NC(=O)COc1ccc(Cl)cc1 | -17.5
O=C(Cn1cnc2c(nnn2-c2cccc(Cl)c2)c1=O)N1CCCC1 | -8.36
Cc1cccc(N2CCN(C(=O)COc3ccc4c(c3)CCC4)CC2C)c1 (stereo not drawn) | -1.36
COCCN(C(=O)COC(=O)Cc1cccc(OC)c1)c1c(N)n(CC(C)C)c(=O)[nH]c1=O | 2.09
CCCCCC(=O)N1CC2(C)CN(C(=O)CCCCC)CC(C)(C1)C2=O | -30.1
CC(C)(C)C(=O)NC(=S)Nc1cc(C(=O)O)ccc1Cl | 4.5
COc1ccccc1C(=O)COC(=O)c1ccc(N(C)C)cc1 | 34.9
CCCCn1c(N)c(N(CC(C)C)C(=O)c2c(CC)noc2C)c(=O)[nH]c1=O | 7.09
CCN1CCc2c(C#N)c(N3CCOCC3)nc(N3CCOCC3)c2C1 | 5.21
COC(=O)c1cccc(C(=O)N2CCCC(C(=O)c3cccc(OC(C)C)c3)C2)c1 (stereo not drawn) | 8.88
CC(C)CCNC(=O)C1CC(c2ccccc2[N+](=O)[O-])=NO1 (stereo not drawn) | -4.33
O=C(CSc1nnnn1C1CCCC1)N1CCCc2ccccc21 | -12.8
O=C(Nc1ccccc1)c1ccc(OC(=O)c2cc3ccccc3o2)cc1 | 13.4
CCOC(=O)C1=C(C)N=C2c3ccccc3C(=O)C2C1c1ccc(Br)cc1 (stereo not drawn) | 2.22
CS(=O)(=O)N1CCC(C(=O)Nc2cc(Cl)c(Cl)cc2Cl)CC1 | 19.7

Compound | hERG current change (%, negative = inhibition) at 10uM [%]
Cc1cc(-c2ccccc2)nn1-c1nc2c(c(=O)[nH]c(=O)n2C)n1C | -2.99
Cc1ccc(OCC(=O)Nc2ccc(N3CCOCC3)cc2)c([N+](=O)[O-])n1 | 13.1
O=C(CCCNS(=O)(=O)c1ccc(Br)cc1)N1CC[C@@]2(O)CCCC[C@H]2C1 | -24.7
O=C(Nc1ccccc1C(=O)NCCCN1CCOCC1)c1cccc([N+](=O)[O-])c1 | -52.7
CC1CCN(CC(=O)NNC(=O)c2cccc(Br)c2)CC1 | -14.9
COc1cc2oc3ccccc3c2cc1N(CC(=O)N(C)C)S(=O)(=O)c1ccccc1 | -19.4
O=S(=O)(c1ccc2ccccc2c1)N1CCN(S(=O)(=O)N2CCOCC2)CC1 | -0.31
Nc1ccc(O)c([N+](=O)[O-])c1 | 22.8
Cn1c(=O)c2c(ncn2CC(=O)N/N=C/C=C/c2ccco2)n(C)c1=O | 6.11
CCN(CC)S(=O)(=O)c1ccc(C(=O)Oc2ccc3c(c2)OCO3)cc1 | -2.51
Cn1c(SCC(N)=O)nnc1-c1cnccn1 | 24
CC(=O)c1c(C)[nH]c(C(=O)NCc2ccccc2Cl)c1C | 5.4
CC(NC(=O)c1ccc(Br)s1)c1ccncc1 (stereo not drawn) | 7.8
COC(=O)CN1C(=O)N/C(=C/c2ccc(OC)c(C)c2OC)C1=O | 33.6
CN(c1cccc(NC(=O)Nc2ccc(Cl)cc2)c1)S(C)(=O)=O | -23.9
Cc1ccccc1NC(=O)CSc1nnc(Cc2cccn2C)n1-c1ccc(F)cc1 | -0.084
COc1cccc(N(CC(=O)NC(C)c2ccccc2)S(C)(=O)=O)c1 (stereo not drawn) | 22.3
CCOc1ccc(/C=C/C(=O)Nc2ccc3[nH]c(=O)[nH]c3c2)cc1 | -6.93
Cn1c(CNC(=O)c2ccco2)nnc1SCC(=O)N1c2ccccc2Sc2ccccc21 | -5.23
